Measurements from publication PMC9911399, “Two distinct binding modes provide the RNA-binding protein RbFox with extraordinary sequence specificity”.
Residue numbers refer to the chain shown, from its start. Some of the results follow.

T1: RBFOX1 RRM RbFoxmut (Fox-RRM*) (Homo sapiens, UniProt Q9NWB1 109-208, R118D;E147R;N151S;E152T)
T1 sequence: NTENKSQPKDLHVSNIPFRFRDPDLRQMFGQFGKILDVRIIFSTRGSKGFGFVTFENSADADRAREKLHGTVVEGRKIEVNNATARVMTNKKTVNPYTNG

B1: UAAUGAG (DNA:RNA)
RNA: GGGAGACCGGAAUUCAGAUUGUCCUAAUGAGUUAAAUCCCGUCGUAGCCACCA
DNA 1: CAATCTGAATTCCGGTCTCCC
DNA 2: TGGTGGCTACGACGGGATT
B2: CAUAUUC (DNA:RNA)
RNA: B1 RNA with U25C, A27U, U28A, G29U, A30U, G31C
DNA 1: CAATCTGAATTCCGGTCTCCC
DNA 2: TGGTGGCTACGACGGGATT
B3: CCAAUCU (DNA:RNA)
RNA: B1 RNA with U25C, A26C, U28A, G29U, A30C, G31U
DNA 1: CAATCTGAATTCCGGTCTCCC
DNA 2: TGGTGGCTACGACGGGATT
B4: GUGCGGG (DNA:RNA)
RNA: B1 RNA with U25G, A26U, A27G, U28C, A30G
DNA 1: CAATCTGAATTCCGGTCTCCC
DNA 2: TGGTGGCTACGACGGGATT
B5: AACGAGC (DNA:RNA)
RNA: B1 RNA with U25A, A27C, U28G, G29A, A30G, G31C
DNA 1: CAATCTGAATTCCGGTCTCCC
DNA 2: TGGTGGCTACGACGGGATT
B6: UCGUCUA (DNA:RNA)
RNA: B1 RNA with A26C, A27G, G29C, A30U, G31A
DNA 1: CAATCTGAATTCCGGTCTCCC
DNA 2: TGGTGGCTACGACGGGATT
B7: GGCAUCG (DNA:RNA)
RNA: B1 RNA with U25G, A26G, A27C, U28A, G29U, A30C
DNA 1: CAATCTGAATTCCGGTCTCCC
DNA 2: TGGTGGCTACGACGGGATT
B8: CGCGGUG (DNA:RNA)
RNA: B1 RNA with U25C, A26G, A27C, U28G, A30U
DNA 1: CAATCTGAATTCCGGTCTCCC
DNA 2: TGGTGGCTACGACGGGATT
B9: GACUUCC (DNA:RNA)
RNA: B1 RNA with U25G, A27C, G29U, A30C, G31C
DNA 1: CAATCTGAATTCCGGTCTCCC
DNA 2: TGGTGGCTACGACGGGATT
B10: CCUUUGG (DNA:RNA)
RNA: B1 RNA with U25C, A26C, A27U, G29U, A30G
DNA 1: CAATCTGAATTCCGGTCTCCC
DNA 2: TGGTGGCTACGACGGGATT
B11: GCGGACG (DNA:RNA)
RNA: B1 RNA with U25G, A26C, A27G, U28G, G29A, A30C
DNA 1: CAATCTGAATTCCGGTCTCCC
DNA 2: TGGTGGCTACGACGGGATT
B12: AUAUUGA (DNA:RNA)
RNA: B1 RNA with U25A, A26U, G29U, A30G, G31A
DNA 1: CAATCTGAATTCCGGTCTCCC
DNA 2: TGGTGGCTACGACGGGATT
B13: GAACGAA (DNA:RNA)
RNA: B1 RNA with U25G, U28C, G31A
DNA 1: CAATCTGAATTCCGGTCTCCC
DNA 2: TGGTGGCTACGACGGGATT
B14: ACAACUA (DNA:RNA)
RNA: B1 RNA with U25A, A26C, U28A, G29C, A30U, G31A
DNA 1: CAATCTGAATTCCGGTCTCCC
DNA 2: TGGTGGCTACGACGGGATT
B15: AGUUAUU (DNA:RNA)
RNA: B1 RNA with U25A, A26G, A27U, G29A, A30U, G31U
DNA 1: CAATCTGAATTCCGGTCTCCC
DNA 2: TGGTGGCTACGACGGGATT
B16: CUCUUAA (DNA:RNA)
RNA: B1 RNA with U25C, A26U, A27C, G29U, G31A
DNA 1: CAATCTGAATTCCGGTCTCCC
DNA 2: TGGTGGCTACGACGGGATT
B17: UGGCAGU (DNA:RNA)
RNA: B1 RNA with A26G, A27G, U28C, G29A, A30G, G31U
DNA 1: CAATCTGAATTCCGGTCTCCC
DNA 2: TGGTGGCTACGACGGGATT
B18: CCCAAUG (DNA:RNA)
RNA: B1 RNA with U25C, A26C, A27C, U28A, G29A, A30U
DNA 1: CAATCTGAATTCCGGTCTCCC
DNA 2: TGGTGGCTACGACGGGATT
B19: UUAGUCG (DNA:RNA)
RNA: B1 RNA with A26U, U28G, G29U, A30C
DNA 1: CAATCTGAATTCCGGTCTCCC
DNA 2: TGGTGGCTACGACGGGATT
B20: GGGACUG (DNA:RNA)
RNA: B1 RNA with U25G, A26G, A27G, U28A, G29C, A30U
DNA 1: CAATCTGAATTCCGGTCTCCC
DNA 2: TGGTGGCTACGACGGGATT
B21: CUGUUCA (DNA:RNA)
RNA: B1 RNA with U25C, A26U, A27G, G29U, A30C, G31A
DNA 1: CAATCTGAATTCCGGTCTCCC
DNA 2: TGGTGGCTACGACGGGATT
B22: AAUAUCC (DNA:RNA)
RNA: B1 RNA with U25A, A27U, U28A, G29U, A30C, G31C
DNA 1: CAATCTGAATTCCGGTCTCCC
DNA 2: TGGTGGCTACGACGGGATT
B23: UGACUGA (DNA:RNA)
RNA: B1 RNA with A26G, U28C, G29U, A30G, G31A
DNA 1: CAATCTGAATTCCGGTCTCCC
DNA 2: TGGTGGCTACGACGGGATT
B24: CCAACAG (DNA:RNA)
RNA: B1 RNA with U25C, A26C, U28A, G29C
DNA 1: CAATCTGAATTCCGGTCTCCC
DNA 2: TGGTGGCTACGACGGGATT
B25: GAUUAGU (DNA:RNA)
RNA: B1 RNA with U25G, A27U, G29A, A30G, G31U
DNA 1: CAATCTGAATTCCGGTCTCCC
DNA 2: TGGTGGCTACGACGGGATT
B26: ACGCGCA (DNA:RNA)
RNA: B1 RNA with U25A, A26C, A27G, U28C, A30C, G31A
DNA 1: CAATCTGAATTCCGGTCTCCC
DNA 2: TGGTGGCTACGACGGGATT
B27: GAUAAUG (DNA:RNA)
RNA: B1 RNA with U25G, A27U, U28A, G29A, A30U
DNA 1: CAATCTGAATTCCGGTCTCCC
DNA 2: TGGTGGCTACGACGGGATT
B28: GUCAUCG (DNA:RNA)
RNA: B1 RNA with U25G, A26U, A27C, U28A, G29U, A30C
DNA 1: CAATCTGAATTCCGGTCTCCC
DNA 2: TGGTGGCTACGACGGGATT
B29: UUGCGAA (DNA:RNA)
RNA: B1 RNA with A26U, A27G, U28C, G31A
DNA 1: CAATCTGAATTCCGGTCTCCC
DNA 2: TGGTGGCTACGACGGGATT
B30: GAGAGCG (DNA:RNA)
RNA: B1 RNA with U25G, A27G, U28A, A30C
DNA 1: CAATCTGAATTCCGGTCTCCC
DNA 2: TGGTGGCTACGACGGGATT
B31: UCGAAAC (DNA:RNA)
RNA: B1 RNA with A26C, A27G, U28A, G29A, G31C
DNA 1: CAATCTGAATTCCGGTCTCCC
DNA 2: TGGTGGCTACGACGGGATT

Target: T1, RBFOX1 RRM RbFoxmut (Fox-RRM*)
Test: EMSA; HiTS-Eq, 1 nM pool, 10 min; buffer printed only for the single-RNA assays: 10 mM Tris pH 7.5, 150 mM NaCl, 3.4 mM EDTA, 0.001% NP-40, 30 C
Conditions: tags: His6 N-terminal (pET28a); label: 5' 32P
Outline: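 These values rest on relative association constants, computed from read-count changes of each RNA species versus the control reaction and normalised to the cognate motif. Reads came from free RNA recovered by 8% native PAGE after purified RbFox RRM (wild type or mutant) at increasing concentrations was equilibrated for 10 min in 50 µL with 1 nM of a 5′-radiolabelled pool with 7 randomized nucleotides and DNA-annealed flanks.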

First: B1
Second: B2
The binding signal of the first is higher: 0.0885 KA relative to UGCAUGU for the first, 0.0821 KA relative to UGCAUGU for the second.

Compared with B3, B4 is higher in binding signal: 0.0623 KA relative to UGCAUGU for the first, 0.106 KA relative to UGCAUGU for the second.

First: B5
Second: B6
The binding signal of the first is lower: 0.0667 KA relative to UGCAUGU for the first, 0.0946 KA relative to UGCAUGU for the second.

Compared with B7, B8 is lower in binding signal: 0.467 KA relative to UGCAUGU for the first, 0.165 KA relative to UGCAUGU for the second.

Compared with B9, B10 is higher in binding signal: 0.0416 KA relative to UGCAUGU for the first, 0.0899 KA relative to UGCAUGU for the second.

First: B11
Second: B12
The binding signal of the first is lower: 0.082 KA relative to UGCAUGU for the first, 0.111 KA relative to UGCAUGU for the second.

Compared with B13, B14 is lower in binding signal: 0.297 KA relative to UGCAUGU for the first, 0.0743 KA relative to UGCAUGU for the second.

First: B15
Second: B16
The binding signal of the first is higher: 0.102 KA relative to UGCAUGU for the first, 0.0994 KA relative to UGCAUGU for the second.

First: B17
Second: B18
The binding signal of the first is lower: 0.0775 KA relative to UGCAUGU for the first, 0.0892 KA relative to UGCAUGU for the second.

First: B19
Second: B20
The binding signal of the first is lower: 0.112 KA relative to UGCAUGU for the first, 0.266 KA relative to UGCAUGU for the second.

First: B21
Second: B22
The binding signal of the first is higher: 0.141 KA relative to UGCAUGU for the first, 0.0854 KA relative to UGCAUGU for the second.

First: B23
Second: B24
The binding signal of the first is higher: 0.28 KA relative to UGCAUGU for the first, 0.108 KA relative to UGCAUGU for the second.

Compared with B25, B26 is higher in binding signal: 0.117 KA relative to UGCAUGU for the first, 0.15 KA relative to UGCAUGU for the second.

First: B27
Second: B28
The binding signal of the first is lower: 0.0802 KA relative to UGCAUGU for the first, 0.186 KA relative to UGCAUGU for the second.

First: B29
Second: B30
The binding signal of the first is lower: 0.124 KA relative to UGCAUGU for the first, 0.128 KA relative to UGCAUGU for the second.

B31 was tested, and the binding signal was 0.0798 KA relative to UGCAUGU.
